MIC of clinical N. gonorrhoeae isolates (2015-2017) by agar dilution on GC agar with 1% IsoVitaleX (ranges not stated); higher = less susceptible. No active / inactive call per row; the paper counts benzylpenicillin above 1 and ceftriaxone above 0.125 mg/L as resistant (EUCAST). The method is stated for benzylpenicillin and ceftriaxone and assumed for the other drugs. '<=' is inferred from pile-ups at the end values. Isolates are numbered anew.
Tests used:
Experiment in all cases: Agar dilution on enriched GC agar; resistance determinants by microarray.
ceftriaxone = compound: CO/N=C(\C(=O)N[C@@H]1C(=O)N2C(C(=O)O)=C(CSc3nc(=O)c(O)nn3C)CS[C@H]12)c1csc(N)n1 [ceftriaxone]
benzylpenicillin = compound: CC1(C)S[C@@H]2[C@H](NC(=O)Cc3ccccc3)C(=O)N2[C@H]1C(=O)O [benzylpenicillin]
azithromycin = compound: CC[C@H]1OC(=O)[C@H](C)[C@@H](O[C@H]2C[C@@](C)(OC)[C@@H](O)[C@H](C)O2)[C@H](C)[C@@H](O[C@@H]2O[C@H](C)C[C@H](N(C)C)[C@H]2O)[C@](C)(O)C[C@@H](C)CN(C)[C@H](C)[C@@H](O)[C@]1(C)O [azithromycin]
spectinomycin = compound: CN[C@@H]1[C@H](O)[C@H](NC)[C@H]2O[C@@]3(O)C(=O)C[C@@H](C)O[C@H]3O[C@@H]2[C@H]1O [spectinomycin]
tetracycline = compound: CN(C)[C@@H]1C(O)=C(C(N)=O)C(=O)[C@@]2(O)C(O)=C3C(=O)c4c(O)cccc4[C@@](C)(O)[C@H]3C[C@@H]12 [tetracycline]

Test System	MIC (ceftriaxone)	MIC (benzylpenicillin)	MIC (azithromycin)	MIC (spectinomycin)	MIC (tetracycline)
Neisseria gonorrhoeae isolate 351 (blaTEM plasmid: no, gyrA: Thr91, Gly95, mtrR promoter: wild type, parC: wild type, penA: ins345Asp, ponA: wild type, porB: wild type, rpsJ: wild type, tetM plasmid: no)	0.004 µg/mL	0.12 µg/mL	0.06 µg/mL	32 µg/mL	0.06 µg/mL
Neisseria gonorrhoeae isolate 381 (blaTEM plasmid: no, gyrA: Phe91, Asn 95, mtrR promoter: wild type, parC: Arg 87, Glu91, penA: ins345Asp, ponA: Pro421, porB: Asp120, Ala121, rpsJ: Met57, tetM plasmid: no)	≤ 0.002 µg/mL	0.25 µg/mL	0.06 µg/mL	32 µg/mL	0.5 µg/mL
Neisseria gonorrhoeae isolate 235 (blaTEM plasmid: no, gyrA: wild type, mtrR promoter: wild type, parC: wild type, penA: ins345Asp, ponA: wild type, porB: wild type, rpsJ: wild type, tetM plasmid: no)	0.004 µg/mL	≤ 0.015 µg/mL	0.015 µg/mL	16 µg/mL	0.5 µg/mL
Neisseria gonorrhoeae isolate 472 (blaTEM plasmid: no, gyrA: wild type, mtrR promoter: wild type, parC: wild type, penA: ins345Asp, ponA: wild type, porB: wild type, rpsJ: wild type, tetM plasmid: no)	0.008 µg/mL	0.12 µg/mL	0.125 µg/mL	32 µg/mL	0.12 µg/mL
Neisseria gonorrhoeae isolate 292 (blaTEM plasmid: no, gyrA: wild type, mtrR promoter: wild type, parC: wild type, penA: ins345Asp, ponA: wild type, porB: wild type, rpsJ: wild type, tetM plasmid: no)	0.008 µg/mL	0.12 µg/mL	0.25 µg/mL	32 µg/mL	0.25 µg/mL
Neisseria gonorrhoeae isolate 91 (blaTEM plasmid: no, gyrA: wild type, mtrR promoter: wild type, parC: wild type, penA: wild type, ponA: wild type, porB: wild type, rpsJ: wild type, tetM plasmid: no)	≤ 0.002 µg/mL	≤ 0.015 µg/mL	0.06 µg/mL	16 µg/mL	0.12 µg/mL
Neisseria gonorrhoeae isolate 342 (blaTEM plasmid: no, gyrA: Ser91, Asn95, mtrR promoter: wild type, parC: wild type, penA: wild type, ponA: wild type, porB: wild type, rpsJ: wild type, tetM plasmid: no)	≤ 0.002 µg/mL	≤ 0.015 µg/mL	0.25 µg/mL	32 µg/mL	0.12 µg/mL
Neisseria gonorrhoeae isolate 411 (blaTEM plasmid: no, gyrA: wild type, mtrR promoter: wild type, parC: wild type, penA: ins345Asp, ponA: wild type, porB: wild type, rpsJ: wild type, tetM plasmid: no)	0.008 µg/mL	0.06 µg/mL	0.06 µg/mL	16 µg/mL	0.25 µg/mL
Neisseria gonorrhoeae isolate 10 (blaTEM plasmid: no, gyrA: wild type, mtrR promoter: wild type, parC: wild type, penA: ins345Asp, ponA: wild type, porB: wild type, rpsJ: wild type, tetM plasmid: no)	≤ 0.002 µg/mL	≤ 0.015 µg/mL	0.06 µg/mL	8 µg/mL	0.06 µg/mL
Neisseria gonorrhoeae isolate 408 (blaTEM plasmid: no, gyrA: wild type, mtrR promoter: wild type, parC: wild type, penA: ins345Asp, ponA: Pro421, porB: wild type, rpsJ: Met57, tetM plasmid: no)	≤ 0.002 µg/mL	0.06 µg/mL	0.015 µg/mL	32 µg/mL	0.5 µg/mL
Neisseria gonorrhoeae isolate 140 (blaTEM plasmid: no, gyrA: wild type, mtrR promoter: wild type, parC: wild type, penA: wild type, ponA: wild type, porB: wild type, rpsJ: wild type, tetM plasmid: no)	≤ 0.002 µg/mL	≤ 0.015 µg/mL	0.12 µg/mL	16 µg/mL	0.25 µg/mL
